Results taken from PubChem BioAssay AID1345083 (National Center for Advancing Translational Sciences (NCATS), 2018).
Hit rate of the full screen: of about 94,000 compounds, about 6,200 (6.6%) were called active. Inconclusive results, whose numbers are uncertain, are shown with a selection of clear calls. The call rests on the fitted dose curve; in most records, active means well fitted inhibition curve with a large enough effect; inconclusive means small, poorly fitted or top-dose-only effect; inactive means flat fitted curve, though single readings scatter. A potency beside an inconclusive call is a rough fit, not a confirmed value.

experiment: Cytotoxic Profiling in HEK 293 Cell Line of Diverse Libraries Using Quantitative High-Throughput Screening; conditions: HEK 293 viability, ATP luminescence (CellTiter-Glo), 48-72 h; series mostly up to 115 µM; further: nearly all actives have a fitted effect of over 60% in size
Method in brief: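 Luminescence from cellular ATP, measured with CellTiter-Glo, indicates HEK 293 viability. Cells plated at 250 cells/well are treated with compound for 48 or 72 hr at 37 degree Celsius before reagent addition.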
Potency means the concentration at half of the fitted maximal effect; tags describe the fitted curve by direction and shape.

SMILES | Potency
COc1ccc(OC2CN(Cc3ccc(C#N)cc3)C2)cc1 | inactive
O=C(NCc1ccc(C(F)(F)F)cc1)C1CN(C2CCCC2)C(=O)N1 (configuration not stated) | inconclusive: 50.1 µM [inhibitor, partial curve, poor fit]
Cc1ccc(CN2CCN(c3nc(C)ccc3C#N)CC2CCO)cc1 (configuration not stated) | inconclusive: 100 µM [inhibitor, single point]
Cc1ccc(-n2nc3n(c2=O)CCN([S+](=O)([O-])c2ccc(C)cc2)C3)cc1 | inconclusive: 89.1 µM [inhibitor, single point]
COCCCNC(=O)C1(C)CN(C)Cc2ccc(NCc3ccccc3)nc21 (configuration not stated) | inconclusive: 89.1 µM [inhibitor, partial curve, poor fit]
O=C(c1ccsc1)N1CCCn2cc(-c3ccccc3)nc21 | inconclusive: 39.8 µM [inhibitor, full curve, poor fit]
O=C(NCc1n[nH]c2c1CCC2)c1coc(COc2cccc(F)c2F)n1 | inactive
O=C(Nc1cccc(F)c1)N1CCOc2ccc(CN3CCc4ccccc4C3)cc2C1 | inconclusive: 50.1 µM [inhibitor, partial curve, poor fit]
CCc1nc2c(c(-c3ccc(O)cc3)n1)CN(Cc1cccc(C(F)(F)F)c1)CC2 | inconclusive: 50.1 µM [inhibitor, partial curve, poor fit]
CCOC(=O)Cc1ccc(NC(=O)N2CCN(Cc3nccn3C)CC2)cc1 | inactive
CCn1ccnc1CN1CC[C@@H](c2ccc3ccccc3c2)[C@H](O)C1 | inconclusive: 31.6 µM [inhibitor, partial curve, poor fit]
CN(C)c1nc2c(c(=O)[nH]1)CCN(C(=O)CCC1CCCC1)CC2 | inactive
CCn1nccc1C(=O)N1CCCn2cc(-c3ccccc3)nc21 | inconclusive: 25.1 µM [inhibitor, full curve]
O=C([C@H]1O[C@H](CCN2C[C@@H]3C[C@H](C2)c2cccc(=O)n2C3)CC[C@@H]1O)N1CCN(c2ccccc2)CC1 | inconclusive: 79.4 µM [inhibitor, single point]
COCCN1C(=O)CCc2cc(NC(=O)c3ccc(OC(F)(F)F)cc3)ccc21 | inconclusive: 28.2 µM [inhibitor, full curve]
CN(Cc1ccc(-c2ccccc2)cc1)C(=O)Cc1ccc(F)cc1 | active: 50.1 µM
CN(Cc1ccc(F)cc1)C(=O)Cc1cccc(Cl)c1 | inconclusive: 112 µM [inhibitor, partial curve]
O=[S+]([O-])(c1cccs1)N1CC(Oc2ccc3c(c2)OCO3)C1 | inconclusive: 112 µM [inhibitor, single point]
Cn1ncc2c(C(=O)NCCc3ccccc3)cc(-c3ccc(C(F)(F)F)cc3)nc21 | inactive
CN(Cc1ccc2ncccc2c1)C(=O)c1ccc(C2CCNC2)cc1 (configuration not stated) | inconclusive: 100 µM [inhibitor, single point]
O=C(Nc1cccnc1)c1nc2c(o1)CCN(Cc1ccc3[nH]ccc3c1)CC2 | active: 100 µM
CC(C)C[C@@H]1N[C@H](C(=O)NCc2ccco2)Cc2cn(Cc3nccn3C)c3cccc1c23 | active: 31.6 µM
COCCN1CC(CO)C2(CCN(Cc3cccc(Cl)c3F)CC2)C1 (configuration not stated) | inconclusive: 50.1 µM [inhibitor, partial curve, poor fit]

SMILES | Potency
CN1c2cc(C(=O)N3CCc4ccccc4C3)ccc2C(=O)N2CCCCC21 (configuration not stated) | inconclusive: 79.4 µM [inhibitor, single point]
COc1ccc(CN2CCNc3cc(Nc4cccnc4)ncc3C2)cc1O | inconclusive: 8.91 µM [inhibitor, full curve, poor fit]
CC(C)(C)n1cnc2c(N3CC4CCC(C3)N4CC(F)(F)F)ncnc21 | inconclusive: 50.1 µM [inhibitor, partial curve, poor fit]
CN(Cc1cccnc1)c1nc2c(c(=O)[nH]1)CCN(Cc1ccccc1C(F)(F)F)CC2 | active: 20 µM
COc1ccccc1C(=O)NC1CCCN(c2ccnc3ccnn23)C1 (configuration not stated) | inconclusive: 100 µM [inhibitor, partial curve, poor fit]
CCN1c2cc(C(=O)NCc3ccncc3)ccc2C(=O)N2CCCCC21 (configuration not stated) | inconclusive: 56.2 µM [inhibitor, partial curve, poor fit]
CCOC(=O)[C@H]1C[C@]2(CCCCN(CCOC)C2=O)N(C(=O)Cc2cccs2)[C@H]1c1ccco1 | active: 79.4 µM
CN(C(=O)c1csc(Cc2ccccc2)n1)C1CCCN(CCc2ccccc2)C1 (configuration not stated) | inconclusive: 89.1 µM [inhibitor, single point]
O=C(CC1CCCC1)N1CCC(N2CC3CC(C2)[C@H]2CCCC(=O)N2C3)CC1 (some centres not stated) | inactive
Cc1ccc(-c2cn[nH]c2C2CCCN(C(=O)CN3CCOCC3)C2)cc1 (configuration not stated) | inactive
Cc1ccc([S+](=O)([O-])N2CCCC(C(=O)N3CCC(N4Cc5cccn5C4=O)CC3)C2)cc1 (configuration not stated) | active: 44.7 µM
O=C(NC[C@H]1Cn2c(-c3ccc(F)cc3)cnc2CO1)c1cccnc1 | inactive
C[S+](=O)([O-])N1CC2(CCCN(Cc3ccccn3)C2)Cc2ccccc21 (configuration not stated) | inactive
N#Cc1ccccc1CN1C(=O)NC(c2cccnc2)(C2CCNCC2)C1=O (configuration not stated) | inactive
CC(=O)N1CCc2sc(C(=O)NCc3cccc(Cl)c3)cc2C1 | inconclusive: 50.1 µM [inhibitor, partial curve, poor fit]
c1ccc(-c2noc(-c3cncnc3NCc3ccc4c(c3)OCO4)n2)cc1 | inactive
CNC(=O)c1cccc(-c2cnc3[nH]cc(CC(=O)NCc4cccs4)c3c2)c1 | inconclusive: 100 µM [inhibitor, partial curve, poor fit]
COc1ccc(OC)c(S(=O)(=O)N2CCCN(C)c3ccccc32)c1 | inconclusive: 56.2 µM [inhibitor, partial curve, poor fit]
COC(=O)[C@@H]1Cc2c([nH]c3ccccc23)[C@H]2C[C@@H](NCc3cccnc3)C[C@@H](c3ccc(F)c(F)c3)N21 | active: 25.1 µM
CN(C)CCNC(=O)c1nc(-c2ccccc2)cc2[nH]ccc12 | inconclusive: 112 µM [inhibitor, partial curve, poor fit]
CC(C)(CC(=O)O)CC(=O)N1CCN2C(=O)c3cc(-c4ccc(Cl)cc4)ccc3NC(=O)[C@H]2C1 | inactive
COc1ccc(Nc2ccnc(N3CCN(C(=O)c4ccccc4Cl)CC3)n2)cc1 | active: 39.8 µM
Cc1cccc(C(=O)NC2CCN(c3cc(-c4ccc(Cl)cc4)[nH]n3)CC2)c1 | inconclusive: 17.8 µM [inhibitor, full curve]

SMILES | Potency
Cc1ccc(-c2cc(C(=O)NCC(F)(F)F)c3cnn(C)c3n2)c(C)c1 | inconclusive: 89.1 µM [inhibitor, single point]
Fc1ccccc1CN1CCCC2(CCN(c3cnccn3)C2)C1 (configuration not stated) | inconclusive: 79.4 µM [inhibitor, single point]
COc1ccc(-c2cc(N3CCCC(NC(=O)c4cc(F)ccc4Cl)C3)n[nH]2)cc1 (configuration not stated) | active: 28.2 µM
Oc1cccc(-c2cc(-c3cccnc3)c3cncn3c2)c1 | active: 56.2 µM
O=C(Cc1ccc(Cl)cc1)N1CCN(C(=O)c2nc3cccnc3n(C3CC3)c2=O)CC1 | inactive
O=S(=O)(c1ccccc1)N1CC(c2nc(-c3ccncc3)no2)C1 | inconclusive: 35.5 µM [inhibitor, partial curve, poor fit]
O=C(CC1CCCCC1)NC1CCN(c2cnn(Cc3ccccc3)c(=O)c2)CC1 | inactive
COc1ccc(F)cc1-c1cccc(C(=O)NCC(=O)NCCC2CCCCC2)c1 | inconclusive: 79.4 µM [inhibitor, partial curve, poor fit]
Cc1ccccc1CN1C[C@@H]2C(=O)N(C)C(=O)[C@@H]2C1 | inactive
COC(=O)C1=C(C)N=C2SC=C(CC(=O)NCc3ccccc3)N2C1c1ccccc1OC (configuration not stated) | inconclusive: 44.7 µM [inhibitor, partial curve, poor fit]
CC(=O)NCCC(=O)N1Cc2ccccc2CC2(CCCCN2CC2CCCC2)C1 (configuration not stated) | inactive
CNC(=O)c1cc(C2CC2)nc2onc(C3CCCN(C(=O)c4cccc(Cl)c4)C3)c12 (configuration not stated) | inconclusive: 79.4 µM [inhibitor, partial curve]
O=S(=O)(Cc1ccccc1)N1CCC(c2noc(-c3ccncc3)n2)C1 (configuration not stated) | inconclusive: 79.4 µM [inhibitor, single point]
O=C(NC1CCN(c2cc(-c3cccs3)[nH]n2)C1)c1cccc(Cl)c1 (configuration not stated) | active: 39.8 µM
CC(C)n1cc(CN2CCCC2C(=O)Nc2cccc(-n3cccn3)c2)cn1 (configuration not stated) | inactive
O=C1CC2(CCN(C(=O)C3CCCN(C(=O)Nc4ccc(Cl)cc4)C3)CC2)Oc2ccccc2N1 (configuration not stated) | active: 22.4 µM
COCc1cc(C[C@@H]2CC[C@H](O)[C@@H](CN(C(=O)Nc3ccccc3OC)C(=O)Nc3ccccc3OC)O2)no1 | inconclusive: 89.1 µM [inhibitor, single point]
CNC(=O)c1cc2cc(-c3c(C)noc3C)nc(-c3ccc(F)cc3OC)c2o1 | inactive
Cc1ccc(C)c(N2CCN(C(=O)c3noc(-c4ccc[nH]c4=O)n3)CC2)c1 | inconclusive: 44.7 µM [inhibitor, partial curve, poor fit]
COc1ccc(-c2cc(N3CCCN(C(=O)Cc4cccc(OC)c4)CC3)n[nH]2)cc1 | inconclusive: 79.4 µM [inhibitor, partial curve, poor fit]
Cn1cccc1CN1CCCC2(Cc3ccccc3CNC2=O)C1 (configuration not stated) | inconclusive: 112 µM [inhibitor, partial curve, poor fit]
